Some of these densities may be calculated back from excess volumes.
Experiment: xn = mol fraction of the nth substance listed
Settings: 100 kPa

Work on `CCCCCCCC[N+](C)(CCCCCCCC)CCCCCCCC.O=S(=O)([N-]S(=O)(=O)C(F)(F)F)C(F)(F)F` + O yielded a mass density (298.15 K, x1 = 0.8467) of 1107.2 kg/m3, a mass density (303.15 K, x1 = 0.8467) of 1103 kg/m3 and a mass density (323.15 K, x1 = 0.8467) of 1088.5 kg/m3. It also gave a mass density (333.15 K, x1 = 0.8467) of 1081.2 kg/m3 and a mass density (353.15 K, x1 = 0.8467) of 1066.5 kg/m3.
For `CC(CC(C)(C)C)CP(=O)([O-])CC(C)CC(C)(C)C.CCCCCCCCCCCCCC[P+](CCCCCC)(CCCCCC)CCCCCC` + O, the mass density (298.15 K, x1 = 0.7942) was 887.5 kg/m3, the mass density (303.15 K, x1 = 0.1299) was 905.1 kg/m3 and the mass density (303.15 K, x1 = 0.7942) was 884.4 kg/m3. It also gave a mass density (313.15 K, x1 = 0.1299) of 898.4 kg/m3, a mass density (313.15 K, x1 = 0.7942) of 878.3 kg/m3 and a mass density (323.15 K, x1 = 0.1299) of 891.6 kg/m3. The mass density (333.15 K, x1 = 0.1299) was 884.8 kg/m3, the mass density (333.15 K, x1 = 0.7942) was 866.4 kg/m3 and the mass density (343.15 K, x1 = 0.1299) was 877.9 kg/m3. The mass density (343.15 K, x1 = 0.7942) was 860.4 kg/m3, the mass density (353.15 K, x1 = 0.1299) was 870.9 kg/m3 and the mass density (353.15 K, x1 = 0.7942) was 854.5 kg/m3.
`CC[n+]1ccn(C)c1.O=S(=O)([N-]S(=O)(=O)C(F)(F)F)C(F)(F)F` + O showed a mass density (298.15 K, x1 = 0.7269) of 1502 kg/m3, a mass density (303.15 K, x1 = 0.7269) of 1497 kg/m3 and a mass density (303.15 K, x2 = 0.0086) of 1513 kg/m3. For the same compound, the mass density (313.15 K, x1 = 0.7269) was 1487 kg/m3, the mass density (313.15 K, x2 = 0.0086) was 1503 kg/m3 and the mass density (323.15 K, x1 = 0.7269) was 1477 kg/m3. For the same compound, the mass density (333.15 K, x2 = 0.0086) was 1484 kg/m3, the mass density (343.15 K, x1 = 0.7269) was 1456 kg/m3 and the mass density (343.15 K, x2 = 0.0086) was 1474 kg/m3.
`CCCCCCCCCCCCCC[P+](CCCCCC)(CCCCCC)CCCCCC.N#C[N-]C#N` + O showed a mass density (303.15 K, x1 = 0.551) of 898.1 kg/m3, a mass density (313.15 K, x1 = 0.551) of 892.2 kg/m3 and a mass density (313.15 K, x1 = 0.8444) of 891.1 kg/m3. It also gave a mass density (323.15 K, x1 = 0.551) of 886.2 kg/m3, a mass density (323.15 K, x1 = 0.8444) of 885.5 kg/m3 and a mass density (333.15 K, x1 = 0.551) of 880.2 kg/m3. For the same compound, the mass density (333.15 K, x1 = 0.8444) was 879.9 kg/m3, the mass density (343.15 K, x1 = 0.551) was 874.3 kg/m3 and the mass density (343.15 K, x1 = 0.8444) was 874.2 kg/m3. The mass density (353.15 K, x1 = 0.551) was 868.2 kg/m3 and the mass density (353.15 K, x1 = 0.8444) was 868.6 kg/m3.
With `CCCCCCCCCCCCCC[P+](CCCC)(CCCC)CCCC.CCCCCCCCCCCCc1ccc(S(=O)(=O)[O-])cc1` + O the mass density (298.15 K, x1 = 0.3452) was 953.3 kg/m3, the mass density (303.15 K, x1 = 0.3452) was 950 kg/m3 and the mass density (303.15 K, x1 = 0.892) was 952.5 kg/m3. The mass density (313.15 K, x1 = 0.3452) was 943.4 kg/m3, the mass density (313.15 K, x1 = 0.892) was 942.8 kg/m3 and the mass density (323.15 K, x1 = 0.892) was 936.6 kg/m3. It also gave a mass density (333.15 K, x1 = 0.3452) of 930.4 kg/m3, a mass density (333.15 K, x1 = 0.892) of 930.4 kg/m3 and a mass density (343.15 K, x1 = 0.3452) of 923.8 kg/m3. It also gave a mass density (343.15 K, x1 = 0.892) of 924.3 kg/m3 and a mass density (353.15 K, x1 = 0.3452) of 917.2 kg/m3.
Work on `CC(C)C[P+](C)(CC(C)C)CC(C)C.Cc1ccc(S(=O)(=O)[O-])cc1` + O yielded a mass density (298.15 K, x1 = 0.4387) of 1073.9 kg/m3, a mass density (303.15 K, x1 = 0.4387) of 1069.2 kg/m3 and a mass density (303.15 K, x1 = 0.9022) of 1069.2 kg/m3. The mass density (313.15 K, x1 = 0.4387) was 1061 kg/m3, the mass density (313.15 K, x1 = 0.9022) was 1062.8 kg/m3 and the mass density (323.15 K, x1 = 0.4387) was 1054.6 kg/m3. For the same compound, the mass density (323.15 K, x1 = 0.9022) was 1056.7 kg/m3, the mass density (333.15 K, x1 = 0.4387) was 1048.2 kg/m3 and the mass density (343.15 K, x1 = 0.4387) was 1041.8 kg/m3. It also gave a mass density (343.15 K, x1 = 0.9022) of 1044.8 kg/m3 and a mass density (353.15 K, x1 = 0.4387) of 1035.3 kg/m3.

Reference: a compilation of properties of binary mixtures (doi:10.1524/zpch.2013.0328)
